Screen size: about 310,000 compounds; about 14,000 (4.5%) showed an effect of 50% or more. Effects have a minus sign here. Some of the results follow.
target: human ether-à-go-go-related gene (hERG) potassium channel (human, UniProt Q12809); assay: primary screen, population patch clamp on CHO cells stably expressing hERG
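Further: peak tail current of the secondary pulse compared with the same well before compound.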

Chain of human ether-à-go-go-related gene (hERG) potassium channel (Q12809 whole entry, looked up): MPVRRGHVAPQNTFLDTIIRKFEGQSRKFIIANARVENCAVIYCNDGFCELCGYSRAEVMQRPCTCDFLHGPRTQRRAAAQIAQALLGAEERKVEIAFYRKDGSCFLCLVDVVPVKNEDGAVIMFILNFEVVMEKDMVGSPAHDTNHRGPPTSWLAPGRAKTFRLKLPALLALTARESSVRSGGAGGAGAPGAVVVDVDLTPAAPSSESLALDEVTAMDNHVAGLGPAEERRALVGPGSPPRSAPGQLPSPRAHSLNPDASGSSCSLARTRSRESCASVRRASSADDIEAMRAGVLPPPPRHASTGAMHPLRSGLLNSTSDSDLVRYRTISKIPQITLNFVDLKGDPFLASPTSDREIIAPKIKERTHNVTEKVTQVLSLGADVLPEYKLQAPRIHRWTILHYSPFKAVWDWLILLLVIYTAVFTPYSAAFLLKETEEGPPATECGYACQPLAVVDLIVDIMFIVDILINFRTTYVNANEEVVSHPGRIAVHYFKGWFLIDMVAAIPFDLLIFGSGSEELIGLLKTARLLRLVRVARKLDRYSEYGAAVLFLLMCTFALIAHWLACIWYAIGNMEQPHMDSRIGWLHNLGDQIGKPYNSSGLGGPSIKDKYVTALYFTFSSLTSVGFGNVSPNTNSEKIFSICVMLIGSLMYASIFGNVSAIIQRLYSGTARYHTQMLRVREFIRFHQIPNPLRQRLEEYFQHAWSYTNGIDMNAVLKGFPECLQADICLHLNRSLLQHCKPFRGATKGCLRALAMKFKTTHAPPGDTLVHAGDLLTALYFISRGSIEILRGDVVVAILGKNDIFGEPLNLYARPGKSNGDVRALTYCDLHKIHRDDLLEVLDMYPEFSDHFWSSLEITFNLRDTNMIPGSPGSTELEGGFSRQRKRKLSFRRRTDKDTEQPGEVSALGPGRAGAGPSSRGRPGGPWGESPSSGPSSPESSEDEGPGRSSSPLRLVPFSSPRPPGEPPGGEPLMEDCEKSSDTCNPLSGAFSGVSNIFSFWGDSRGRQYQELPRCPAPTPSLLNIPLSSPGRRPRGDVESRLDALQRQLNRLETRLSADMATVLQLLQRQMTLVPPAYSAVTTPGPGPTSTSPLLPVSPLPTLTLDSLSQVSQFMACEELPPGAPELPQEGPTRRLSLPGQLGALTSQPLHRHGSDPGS

| Compound | hERG current change (%, negative = inhibition) at 10uM [%] |
| --- | --- |
| CCCc1nnc2c(N(C)S(=O)(=O)c3ccc(C)cc3)nc3ccccc3n12 | -43 |
| NNc1nc(-c2ccccc2)cc(-c2ccc(Br)cc2)n1 | 1.23 |
| CCCC1CCc2c(sc(NC(=O)OCC)c2C#N)C1 (stereo not shown) | 5.05 |
| CC1CCCCN1c1nnc(NC(=O)Cn2c(=O)oc3ccccc32)s1 (stereo not shown) | 18.3 |
| CCc1ccc(OCC(=O)NNC(=O)c2ccc(NC(=O)C3CC3)cc2)cc1 | 5.18 |
| COCCN1C(=O)C(O)=C(C(=O)c2cccs2)C1c1ccccc1 (stereo not shown) | 24.1 |
| Clc1ccccc1OCc1nc(-c2ccc(Br)o2)no1 | 0.169 |
| C[C@@]12CCC=C[C@H]1[C@H](c1ccoc1)N(Cc1ccccc1)C2=O | -8.15 |
| Cn1cccc2[nH]c(=O)nc1-2 | 15.3 |
| COC(=O)c1cc(NC(=O)c2nn(C)c(=O)c3ccccc23)cc(C(=O)OC)c1 | 9.47 |
| COc1ccccc1C1CN(c2ccc(F)cc2F)N=C1c1cccs1 (stereo not shown) | -10.3 |
| COCCCn1nnnc1SCC(=O)N1CCN(C(=O)c2ccco2)CC1 | 11.2 |
| CCC(=O)N(Cc1cc2cccc(C)c2[nH]c1=O)c1ccccc1OC | -4.31 |
| CC(C)CC(=O)N1CCN(C(=O)c2cccc(F)c2)CC1 | 0.0457 |
| S=C(NCc1ccncc1)Nc1cc(Cl)cc(Cl)c1 | -38.3 |
| O=[N+]([O-])c1ccc(NC(=S)N2CCc3ccccc3C2)cc1 | -2.68 |
| O=S1(=O)NC2CCCCCN2c2ccc(F)cc21 (stereo not shown) | -11.4 |
| O=C(c1ccccc1)N1CCCOC1c1ccccc1 (stereo not shown) | -2.84 |
| COc1ccc(C(=O)CNc2ccc(C)cc2C)cc1 | 15.7 |
| O=C(COc1coc(CN2CCN(c3ccccc3F)CC2)cc1=O)NCC1CCCO1 (stereo not shown) | 1.33 |
| N#C/C(=C\c1ccccc1[N+](=O)[O-])c1nc(C2CC2)cs1 | 4.89 |
| COc1ccc(CNC(=O)COc2ccc(S(=O)(=O)N3CCCCC3)cc2Cl)cc1 | -10.1 |
| COc1ccccc1/C=N/NC(=O)CC(=O)NC1CCCCC1 | 17.8 |

| Compound | hERG current change (%, negative = inhibition) at 10uM [%] |
| --- | --- |
| COc1cc(NS(=O)(=O)c2ccc(NC(=S)NC(=O)c3cccs3)cc2)nc(OC)n1 | -21.2 |
| CCOC(=O)C1(CC2CCCCO2)CCN(Cc2nc(-c3cccs3)oc2C)CC1 (stereo not shown) | -67.6 |
| CCOC(=O)C1CCCN(S(=O)(=O)Cc2ccccc2Cl)C1 (stereo not shown) | 2.84 |
| COc1ccc(-c2nc(CS(=O)CC(=O)NCc3ccc(F)cc3)c(C)o2)cc1 (stereo not shown) | -11.9 |
| COc1cc(O)c(C(CC(=O)N2CCCC2)c2ccc(N(C)C)cc2)c(OC)c1 (stereo not shown) | 19.3 |
| CC1=NN(c2ccccc2)C(=O)C1=C(C)C | 17 |
| CN1C(=O)C(=Cc2ccc(N3CCCCC3)o2)C(=O)N(C)C1=S | 3.71 |
| Cc1ccccc1NC(=O)CSc1nnc(CNC(=O)c2ccc3c(c2)OCO3)n1C | 1.34 |
| CC(C)CN(C(=O)CN1CCCCCC1)c1c(N)n(CC(C)C)c(=O)[nH]c1=O | 23.9 |
| CCCCOc1ccc(-c2nnn(C(C)C(=O)OCC)n2)cc1 (stereo not shown) | -13.9 |
| CCOC(=O)/C=C/C(=O)Nc1ccc(S(=O)(=O)Nc2cc(C)on2)cc1 | 9.75 |
| CCOc1c2ccc(C(=O)NCc3ccccc3OC)cc2nn1CC | 11.5 |
| Cc1nc2sc3c(c2c(=O)n1NC(=O)CCl)CCCC3 | -10.8 |
| CC(=O)c1c(C)oc2ccc(NS(=O)(=O)c3ccc(O)c(C(=O)O)c3)cc12 | 6.41 |
| CC(C)N1C(=S)SC(C)(C)C1NO (stereo not shown) | 4.75 |
| CCOc1ccccc1OCCCC(=O)Nc1ccc(OC)nc1 | 9.71 |
| COC(=O)c1ccc(C(c2c(N)n(Cc3ccccc3)c(=O)n(C)c2=O)N2CCOCC2)cc1 (stereo not shown) | -57.9 |
| CCOC(=O)C1=C(C)OC(N)=C(C#N)C1c1c(C)nn(-c2ccccc2)c1Cl (stereo not shown) | -12.5 |
| COC(=O)c1ccccc1NC(=O)CSc1nnc(-c2cccc(NC(C)=O)c2)n1C | -3.68 |
| CCNC(=O)c1ccccc1-c1nc(-c2ccccc2OC)no1 | -0.178 |
| CCOc1ccc(NC(=O)NC2CCCc3ccccc32)cc1 (stereo not shown) | 32.1 |
| COc1ccc(Cl)cc1-c1nc(N)nc(N(C)C)n1 | -9.28 |
| O=S(=O)(c1ccc(F)cc1)N1CCC(c2nc3ccccc3[nH]2)CC1 | -2.46 |

| Compound | hERG current change (%, negative = inhibition) at 10uM [%] |
| --- | --- |
| CCOC(=O)C1CCCN(C(=O)/C=C/c2ccc([N+](=O)[O-])cc2)C1 (stereo not shown) | -64.8 |
| O=C(CCCCCN1C(=O)c2cccc([N+](=O)[O-])c2C1=O)Nc1ccccc1F | 12.5 |
| O=C(O)CCN1CCc2ccccc2C1c1ccncc1 (stereo not shown) | 13.2 |
| O=C(NCc1ccccn1)c1cc(-c2ccc(Cl)cc2)oc1C(F)(F)F | 3.34 |
| Cc1ccc(C(=O)NCCC(=O)N2CCOCC2)cc1 | 15.3 |
| CC(OC(=O)CCN=C1NS(=O)(=O)c2ccccc21)C(=O)Nc1ccc(F)c(F)c1F (stereo not shown) | -8.42 |
| CC(=O)Nc1cccc(NC(=O)C(=O)c2cn(CC(=O)N3CCCCC3)c3ccccc23)c1 | -4.02 |
| O=C1Nc2ccccc2C(=O)N2C[C@@H](O)C[C@H]12 | 26.3 |
| O=C(C1CC(c2ccc(F)cc2)=NO1)N1CCN(c2ccccc2)CC1 (stereo not shown) | 5.22 |
| CN1N=C(C(=O)N2CCCC(C(=O)c3cccc(C(F)(F)F)c3)C2)CCC1=O (stereo not shown) | -2.17 |
| CCOc1ccccc1NC(=O)C(OC(=O)c1ccc(NC(=O)CC#N)cc1)c1ccccc1 (stereo not shown) | 12.6 |
| Br.CC(C)O.Cc1ccc(-c2csc(Nc3ccccc3)[n+]2CCc2ccccc2)cc1 | 20.5 |
| COc1ccc(NC(=O)CSc2nnc(CNC(=O)c3ccco3)o2)c(OC)c1 | 6.03 |
| COc1ccc2[nH]cc(CCNCc3cccnc3)c2c1.Cl | 4.89 |
| CC(=O)NC1(C(F)(F)F)NC(=O)N(C2CCCCC2)C1=O (stereo not shown) | -15 |
| CNC(=O)CSc1nnnn1-c1cc(C)ccc1C | 5.31 |
| CCN1CCN(c2cc(C)c3cc(NC(=O)c4cccnc4Cl)ccc3n2)CC1 | -6.83 |
| O=C1CC(N2CCN(c3ccccc3)CC2)C(=O)N1CCc1ccccc1 (stereo not shown) | -17.8 |
| COC(=O)c1ccc(CSc2nncn2C)cc1 | -4.19 |
| Nc1cc(N)cc(-c2nc3ccccc3[nH]2)c1 | -1.71 |
| CCCn1c(N)c(C(=O)COC(=O)c2c(C)noc2C)c(=O)n(C)c1=O | -21 |
| CCCCOC(=O)CCc1c(C)[nH]c(=O)c(C#N)c1C | -32.8 |
| Cc1cc(C)n2ncc(-c3cccc(Br)c3)c2n1 | 5.79 |

| Compound | hERG current change (%, negative = inhibition) at 10uM [%] |
| --- | --- |
| O=C(CN1CCCc2ccccc21)NCc1ccc2c(c1)OCO2 | -0.305 |
| COCCNCc1ccccc1 | 0.571 |
| CCOC(=O)c1sc(NC(=O)CC)nc1C | -2.64 |
| O=c1cnc2ccccc2n1Cc1ccc(Br)cc1 | 0.175 |
| CC(C)CCN1CCN(Cc2cccc(-n3cccn3)c2)CC1CCO (stereo not shown) | -57.6 |
| COC(=O)Cc1ccc(NC(=S)NCc2ccc(S(N)(=O)=O)cc2)cc1 | 15.8 |
| CCOc1ccc2[nH]c(=O)c(CN(CCO)C(=O)c3ccc(OC)c(OC)c3)cc2c1 | -0.583 |
| O=C(NCc1cccc(Cl)c1)c1ccc(-c2csnn2)cc1 | 6.03 |
| CCCc1nnc(NC(=O)C2CC(=O)N(CCc3ccc(F)cc3)C2)s1 (stereo not shown) | -32.6 |
| CCn1c(SCC(=O)c2ccc3c(c2)OCCO3)nnc1C(C)C | 4.98 |
| O=C(CCc1nc(-c2ccc(Cl)cc2)no1)OCc1ccc(Br)cc1 | 7.97 |
| CC(=O)N1CCN(c2ccccc2NC(=O)c2cc3ccccc3o2)CC1 | -49.8 |
| Cc1ccc(O)c(CNc2cnc3ccccc3c2)c1 | 2.28 |
| Fc1ccc(NC(=S)NCCc2ccc(Cl)cc2)cc1 | 1.47 |
| CCn1cc(C(=O)N2CCN(c3ccc(OC)cc3)CC2)c(=O)c2cc(S(=O)(=O)N3CCCCC3)ccc21 | 26.4 |
| COc1ccc(OCCOc2ccc(N(C)S(=O)(=O)c3ccccc3)cc2)cc1 | -3.07 |
| CCCCNS(=O)(=O)c1ccc(NC(=O)C(Sc2ccccc2)c2ccccc2)cc1 (stereo not shown) | 15.9 |
| CC(NC(=O)c1ccccc1N)c1ccccc1 (stereo not shown) | 8.41 |
| O=C(CNc1cccc(C(F)(F)F)c1)N/N=C/c1ccccc1C(=O)O | 8.38 |
| O=C(NC1CCCC1)C(c1ccc(F)cc1)N(C(=O)c1csnn1)c1ccccc1 (stereo not shown) | 15 |
| Cc1nc(N)sc1-c1csc(Nc2ccccc2)n1 | -6.34 |
| COc1ccc(NC(=O)C2CCN(S(=O)(=O)c3ccc(Br)s3)CC2)cc1OC | -23.1 |

Reference: PMC4336329 (PLoS ONE, 2015)
